Hit rate of the full screen: of about 310,000 compounds, about 14,000 (4.5%) showed an effect of 50% or more. The effect is printed as a negative number. The list shows a part of the results.
Target: human ether-à-go-go-related gene (hERG) potassium channel (human, UniProt Q12809)
Test: primary screen, population patch clamp on CHO cells stably expressing hERG
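Further: peak tail current of the secondary pulse compared with the same well before compound.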

Chain of human ether-à-go-go-related gene (hERG) potassium channel (Q12809 whole entry, looked up): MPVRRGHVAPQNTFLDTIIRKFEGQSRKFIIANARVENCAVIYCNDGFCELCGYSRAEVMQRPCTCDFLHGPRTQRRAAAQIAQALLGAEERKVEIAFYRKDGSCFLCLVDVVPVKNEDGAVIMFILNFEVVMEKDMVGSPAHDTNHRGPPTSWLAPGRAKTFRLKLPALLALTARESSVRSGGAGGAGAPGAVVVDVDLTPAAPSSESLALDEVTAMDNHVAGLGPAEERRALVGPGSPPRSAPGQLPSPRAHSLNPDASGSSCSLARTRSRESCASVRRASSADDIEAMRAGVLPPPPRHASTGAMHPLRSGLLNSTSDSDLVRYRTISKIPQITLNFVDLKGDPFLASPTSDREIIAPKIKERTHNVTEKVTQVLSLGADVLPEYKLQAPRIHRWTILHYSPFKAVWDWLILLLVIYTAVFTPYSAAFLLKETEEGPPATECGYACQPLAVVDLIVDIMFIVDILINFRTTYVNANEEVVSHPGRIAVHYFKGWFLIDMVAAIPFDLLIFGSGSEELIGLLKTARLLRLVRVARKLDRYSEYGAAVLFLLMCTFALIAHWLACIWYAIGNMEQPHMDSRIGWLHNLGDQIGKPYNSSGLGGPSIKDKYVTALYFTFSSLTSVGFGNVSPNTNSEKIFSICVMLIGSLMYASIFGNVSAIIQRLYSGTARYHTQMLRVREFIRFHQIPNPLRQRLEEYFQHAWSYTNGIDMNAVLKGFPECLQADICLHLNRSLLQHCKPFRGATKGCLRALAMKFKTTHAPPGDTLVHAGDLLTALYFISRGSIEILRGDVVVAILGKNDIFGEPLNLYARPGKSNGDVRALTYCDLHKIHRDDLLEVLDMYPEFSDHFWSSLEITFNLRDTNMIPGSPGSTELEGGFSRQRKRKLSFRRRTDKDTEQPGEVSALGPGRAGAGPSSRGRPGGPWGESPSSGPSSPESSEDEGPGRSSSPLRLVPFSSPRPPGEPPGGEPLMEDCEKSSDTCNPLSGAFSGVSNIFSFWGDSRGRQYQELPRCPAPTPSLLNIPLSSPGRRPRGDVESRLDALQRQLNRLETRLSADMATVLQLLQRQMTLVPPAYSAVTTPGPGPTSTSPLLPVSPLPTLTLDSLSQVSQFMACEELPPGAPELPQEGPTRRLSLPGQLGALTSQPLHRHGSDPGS

| Structure (SMILES) | hERG current change (%, negative = inhibition) at 10uM |
| --- | --- |
| c1ccc(CNc2ncnc3sc4c(c23)CCC4)nc1 | -19.8% |
| Cc1ccc(C)c(NC(=O)COC(=O)CC2c3ccccc3CCN2S(=O)(=O)c2ccc(F)cc2)c1 (stereo not shown) | 5.51% |
| O=C(CCn1c(=O)c2cccn2c2cccnc21)NCc1cccc(Cl)c1 | 6.6% |
| COc1ccc(S(=O)(=O)N2CCCC(C(=O)N3CCOCC3)C2)cc1OC (stereo not shown) | 24.3% |
| O=S1(=O)CC2SC(=S)N(Cc3ccccc3)C2C1 (stereo not shown) | -3.44% |
| COc1cc(-c2[nH]nc3c2C(c2ccco2)C(C#N)=C(N)O3)cc(OC)c1OC (stereo not shown) | 9.37% |
| O=C(NCCc1ccccc1)C1CCC(Cn2c(=O)c3ccccc3n(Cc3cccc(Cl)c3)c2=O)CC1 (stereo not shown) | 10.9% |
| Cc1ccc(N=C2NC(=O)S/C2=C\c2ccco2)cc1 | 6.9% |
| O=C(O)C1(c2ccc(Cl)cc2)CCC1 | 3.46% |
| Cc1cc(-c2n[nH]c(=S)n2/N=C/c2ccco2)n[nH]1 | 7.99% |
| NC(=O)C1(N2CCCCC2)CCN(C(=O)CCCn2c(=O)[nH]c3ccsc3c2=O)CC1 | 4.45% |
| O=S(=O)(Nc1ccccn1)c1cccc(S(=O)(=O)c2ccc(Cl)cc2)c1 | 0.562% |
| CC(C)C(=O)NNC(=O)c1ccccn1 | 9.18% |
| Cc1cc(C)cc(N2C(=O)NC(=O)/C(=C/c3cccn3-c3ccc(Cl)cc3)C2=O)c1 | 6.93% |
| C/C(=N\NC(N)=O)c1ccccc1 | 44.4% |
| COc1ccc(-n2cnnc2SC(C)C(=O)Nc2cccc([N+](=O)[O-])c2)cc1 (stereo not shown) | -59.3% |
| CN(C)c1ccc(/C=C(\C#N)c2ccccn2)cc1 | -6.97% |
| Nc1ccc(C(=O)N2CCCC2)cc1CS(=O)(=O)c1ccc(Cl)cc1 | -4.18% |
| COc1ccc(-n2c(-c3ccco3)nc3c(cnn3-c3ccccc3C)c2=O)cc1 | 6.61% |
| OCCC1CN(CC#Cc2ccccc2)CCN1Cc1ccccc1F (stereo not shown) | -7.93% |

| Structure (SMILES) | hERG current change (%, negative = inhibition) at 10uM |
| --- | --- |
| CCCCn1c(N)c(N(CCOC)C(=O)COC(=O)COc2ccc(CC)cc2)c(=O)[nH]c1=O | 1.17% |
| CCN1CCN(CC(O)COCc2cc(OC)c(OC)c(OC)c2)CC1.Cl (stereo not shown) | 22.2% |
| CCc1n(CC(O)COCc2ccccc2)c2ccccc2[n+]1C.[I-] (stereo not shown) | 13.5% |
| Cc1ccc2c(c1)/C(=N/N1C(=O)c3ccccc3C1=O)C(=O)N2 | 4.24% |
| Cc1ccc(SCC(=O)Nc2ccc(S(N)(=O)=O)cc2)cc1 | 31.3% |
| CCCCn1nnc(NC(=O)c2ccco2)n1 | 0.862% |
| CC(Sc1nc(-c2ccccc2)cc(C(F)(F)F)n1)C(=O)N1CCC(C(N)=O)CC1 (stereo not shown) | -39% |
| CCOCCCNC(=O)C(NC(=O)c1ccccc1O)c1ccc(Cl)cc1 (stereo not shown) | 0.22% |
| Cc1ccc(-c2nnc(SCC(=O)O)n2N)cc1 | -2.12% |
| CCN1CCN(Cc2nc3c(c(=O)n(C)c(=O)n3C)n2Cc2cccc3ccccc23)CC1 | -47.9% |
| O=C(Cn1nnc(-c2ccc(NC(=O)c3ccccc3F)cc2)n1)NCc1ccc(F)cc1 | -2.52% |
| CN(Cc1c(C(=O)N/N=C/c2cccs2)nnn1-c1nonc1N)c1ccccc1 | -0.483% |
| CC(=O)N1CCCc2ccc(NS(=O)(=O)c3ccc(C)cc3)cc21 | -7.31% |
| CCOCCCNCc1ccc(OC)cc1.O=C(O)C(=O)O | 2.56% |
| O=C1C2CCCN2C(=O)N1CCCCN1CCN(c2cccc(C(F)(F)F)c2)CC1 (stereo not shown) | -60.9% |
| CC(C)NC(=O)NC(=O)CSc1nncs1 | 12.8% |
| Cc1cc(F)ccc1NC(=O)c1cc(S(=O)(=O)N2CCc3ccccc32)cn1C | -8.65% |
| CC1(C)C(=O)Nc2ccccc2N1C(=O)COC(=O)CSc1ccc(Cl)cc1 | 18.3% |
| Cc1cc(C)c(OCC(=O)OCC(=O)NCC2CCCCC2)c(C)c1 | 7.92% |
| COc1cccc2c1OC1(C)CC2NC(=O)N1 (stereo not shown) | 0.978% |

| Structure (SMILES) | hERG current change (%, negative = inhibition) at 10uM |
| --- | --- |
| Cc1c(O)ccc(C(=O)CN2CCN(c3ccccc3F)CC2)c1O | 22.6% |
| O=C(CSc1ccc2nnc(-c3ccccn3)n2n1)NCc1ccco1 | -63.1% |
| Cn1ccnc1C(O)c1ccccc1 (stereo not shown) | 21.1% |
| Br.CCc1ccc(C(=O)CN2CCSC2=N)cc1 | 0.361% |
| CC(C)CC(=O)Nc1cccc(C(C)O)c1 (stereo not shown) | -8.15% |
| O=C1NC(=O)c2cc(NC(=O)C3CCCCC3)ccc21 | -5.18% |
| CCn1c(NC(=O)c2cccc(Cn3cc(Cl)cn3)c2)nc2ccccc21 | -4.01% |
| Nc1ccc(C(=O)N/N=C/c2cn(Cc3ccccc3F)c3ccccc23)cc1 | 12.5% |
| Nc1nnc(SCC(=O)c2ccc([N+](=O)[O-])cc2)s1 | -3.81% |
| CCCCN1C(=O)C2ON(c3ccccc3C)C(c3ccco3)C2C1=O (stereo not shown) | 2.91% |
| Cc1ccccc1NC(=O)COc1coc(CN2CCN(Cc3ccccc3)CC2)cc1=O | -53.3% |
| COc1ccc(OC)c2c(C)c(C)[nH]c12 | -4.4% |
| S=c1[nH]nc(-c2cccc3ccccc23)n1-c1cccnc1 | 24.6% |
| CCCCC(=O)Nc1ccc2c3c(cccc13)C(=O)N2CC | 5.28% |
| CCOC(=O)C1CCN(C(=O)C2CCN(c3nn4c(=O)cc(C)nc4s3)CC2)CC1 | 3.2% |
| CN(Cc1ccc(Cl)cc1)C(=O)COC(=O)CSc1ccc([N+](=O)[O-])cc1 | -6% |
| O=C(C1CCC1)N1CCc2cc(S(=O)(=O)Nc3ccc4c(c3)OCCO4)ccc21 | 17.7% |
| CCOC1=NN(c2ccccc2)C(=O)/C1=C\N(C)C | -2.73% |

Source: PMC4336329 (PLoS ONE, 2015)
